Test results: PubChem BioAssay AID488969 (Vanderbilt High Throughput Screening Facility, 2010)
Several values for one entry are separate records, joined by “and”; a condition that tells them apart may be missing. Identical values can stand only once. Whole data set: some 110,000 compounds, median “z-score” near -0.1, cut for the highest 2% near 2. Some of the results follow. Activity calls are given as the source filed them.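 The calls were made as follows: active = z-score in the third read window above 3 or below -3; inactive = the rest.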

These molecules were tested against Metabotropic glutamate receptor 8 (Rattus norvegicus) (UniProt P70579) (assay: rat mGluR8 modulators via GIRK flux, primary screen, cell-based, thallium flux, HTS (AID 488969)). Settings: HEK293 rat mGluR8, GIRK (G protein-gated inwardly rectifying potassium channel) thallium flux, FluoZin2; at 10 µM; stronger effect = higher value; submaximal glutamate (EC20) added with thallium.
Chain of UniProt P70579 (P70579 whole entry, looked up): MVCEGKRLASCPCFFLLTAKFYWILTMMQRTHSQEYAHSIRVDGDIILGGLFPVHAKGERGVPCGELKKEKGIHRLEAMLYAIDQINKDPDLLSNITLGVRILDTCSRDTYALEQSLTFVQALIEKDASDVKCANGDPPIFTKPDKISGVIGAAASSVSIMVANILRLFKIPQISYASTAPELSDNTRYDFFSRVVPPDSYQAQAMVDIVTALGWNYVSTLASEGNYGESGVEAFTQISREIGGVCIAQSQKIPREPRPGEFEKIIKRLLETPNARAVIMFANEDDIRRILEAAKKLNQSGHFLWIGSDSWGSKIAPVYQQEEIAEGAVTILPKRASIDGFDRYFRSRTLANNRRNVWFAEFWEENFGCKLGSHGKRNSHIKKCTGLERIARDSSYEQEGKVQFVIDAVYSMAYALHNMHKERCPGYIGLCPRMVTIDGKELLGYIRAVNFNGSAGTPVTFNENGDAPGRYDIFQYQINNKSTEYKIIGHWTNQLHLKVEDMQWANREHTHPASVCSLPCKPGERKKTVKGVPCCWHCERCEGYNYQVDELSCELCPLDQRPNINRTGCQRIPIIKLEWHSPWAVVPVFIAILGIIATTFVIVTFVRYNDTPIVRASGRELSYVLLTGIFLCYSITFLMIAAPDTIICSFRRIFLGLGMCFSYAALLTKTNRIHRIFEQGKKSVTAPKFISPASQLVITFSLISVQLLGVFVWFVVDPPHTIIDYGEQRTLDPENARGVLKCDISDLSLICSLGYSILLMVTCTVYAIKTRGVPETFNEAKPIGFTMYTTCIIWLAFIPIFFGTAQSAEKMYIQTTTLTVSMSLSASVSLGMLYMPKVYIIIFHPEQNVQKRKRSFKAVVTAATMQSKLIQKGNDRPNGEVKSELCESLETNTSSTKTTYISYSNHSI
In the case of `Cc1ccc(C(C(=O)NC2CCCCC2)N(Cc2ccco2)C(=O)Cn2cnc3ccccc32)cc1` (stereo not given), the z-score is reported as -0.4. `Cc1cccc(C)c1OCC(=O)N/N=C/c1cc2c(cc1[N+](=O)[O-])OCO2` was tested, and the z-score was 0.124. `COc1cc(/C=N/O)c(Br)cc1OCC(=O)Nc1ccccc1C` was tested, and the z-score was -0.175. In the case of `CNC(=O)OCc1cccc(COC(=O)NC)n1`, the z-score is reported as 0.271. Molecule `Cc1ccc(C(=O)c2cc([N+](=O)[O-])ccc2N2CCOCC2)c(C)c1` has a z-score of -0.293. `CCCCn1c(C(C)NC(=O)CC)nc2ccccc21` (stereo not given) showed a z-score of 0.342. For `O=C(Nc1ccccc1N1CCCC1)c1ccco1`, the z-score was -0.0103. In the case of `Cc1cc(C(C)(C)C)cc(S(=O)(=O)Nc2cccc(C(=O)O)c2)c1C`, the z-score is reported as -0.43. Molecule `Cc1ccc(C=Nc2ccc(N(C)C)cc2)o1` has a z-score of -0.209. Work on `O=C(N/C(=C\c1cccc([N+](=O)[O-])c1)C(=O)N1CCCCC1)c1cccs1` yielded a z-score of -0.0617. In the case of `CCCCOc1ccc(-c2nnn(CCC(=O)N3CCOCC3)n2)cc1`, the z-score is reported as 1.07. `COc1ccc(-c2nn3c(-c4ccncc4)nnc3s2)cc1OC` was tested, and the z-score was -0.146. Work on `CCCCCCOc1cccc(N)c1` yielded a z-score of -0.0965. Molecule `O=C(NCC1COc2ccccc2O1)C1CCC(CNc2c(N3CCCCC3)c(=O)c2=O)CC1` (stereo not given) has a z-score of -0.495. Work on `Cc1ccnc(NC(=O)c2ccc(COc3ccc(Cl)cc3)o2)c1` yielded a z-score of -0.203. `CSC1=NC(NCCCO)c2c(sc3c2CC(C)(C)OC3)N1` (stereo not given) was tested, and the z-score was -0.112. With `Fc1ccc(N/N=C(/c2ccccc2)c2ccccn2)cc1` the z-score was -0.766. In the case of `CCc1nc(C)cc(N)c1OCc1ccccc1`, the z-score is reported as 0.243. Molecule `Cc1ccc(C)c(Cn2nnc3c(=O)[nH]c(C4CCCN(C(=O)C5CCCCC5)C4)nc32)c1` (stereo not given) has a z-score of -0.651. Work on `O=C(CCCOc1ccc(Cl)cc1)N1CCCCC1` yielded a z-score of -0.0458. For `CCOC(=O)N1CCN(C(=O)Cn2nc(C)c3sc4ccccc4c3c2=O)CC1`, the z-score was 0.298. `COc1cc2c(cc1OC)-c1cc(OCc3ccccc3Cl)nc(=O)n1CC2` showed a z-score of -1.08. For `CCC(=O)Nc1nnc(SCc2ccc(F)cc2)s1`, the z-score was -0.00764. `Cc1ccc2cc3c(nc2c1)N(Cc1ccco1)CC3` showed a z-score of -0.36. In the case of `Cc1ccc(C2=NN(CCC(=O)NCCC(C)C)C(=O)CC2)cc1`, the z-score is reported as -0.21. For `COc1ccccc1CCNC(=O)c1cnccn1`, the z-score was -0.0818. With `COc1ccc(CCNC(=O)c2ccc(-c3ccc([N+](=O)[O-])cc3Cl)o2)cc1` the z-score was -0.757. In the case of `Cc1ccc(CSc2nnc(C)c(=O)n2N)cc1`, the z-score is reported as 0.071. With `CC1=CC(C)(C)N(C(=O)CN2C(=O)c3ccccc3C2=O)c2ccc(C)cc21` the z-score was 0.455. With `O=C1CCCC(=O)N1c1ccc(Oc2ccc(Cl)cc2)cc1` the z-score was -0.258. In the case of `O=C(c1ccccc1)N1CCC(c2nc3c(nnn3Cc3ccccc3Cl)c(=O)[nH]2)CC1`, the z-score is reported as -0.833. In the case of `O=C(NC(Cc1ccccc1)C(=O)Oc1ccc2c(C(F)(F)F)cc(=O)oc2c1)OCc1ccccc1` (stereo not given), the z-score is reported as -0.163. With `COc1ccc(OC2C(=O)N(CCc3ccc(OC)c(OC)c3)C2c2ccc3c(c2)OCO3)cc1` (stereo not given) the z-score was -0.153. For `Cc1cc(/C=C2\SC(=Nc3ccccc3)NC2=O)c(C)n1-c1ccc(S(N)(=O)=O)cc1`, the z-score was -0.304. `CC(=C\c1ccco1)/C=C(\C#N)C(=O)NCCc1c[nH]c2ccccc12` showed a z-score of -0.155. `O=C(NNC(=S)Nc1ccccc1)c1ccco1` gave a z-score of -0.0375. In the case of `CCOC(=O)Cc1csc(NC(=S)NC(=O)c2ccc([N+](=O)[O-])cc2)n1`, the z-score is reported as 1.72. Work on `CC(C(=O)Nc1ncc2c(n1)CC(C)(C)CC2=O)N1C(=O)c2ccccc2C1=O` (stereo not given) yielded a z-score of -0.278. In the case of `COc1cccc(CNn2c(-c3cccc(C)c3)nc3ccccc3c2=O)c1`, the z-score is reported as 0.147. `CCOP(=O)(c1ccccc1)C1(C#N)CCCC1` (stereo not given) was tested, and the z-score was -0.0144. Work on `CCCS(=O)(=O)N1CCCC(C(=O)NCCN(Cc2ccccc2)C(C)C)C1` (stereo not given) yielded a z-score of 0.157. `N#C/C(=N\O)c1nc(-c2ccccc2)cs1` was tested, and the z-score was 0.108 and -0.474. `Cc1nn(C2CCS(=O)(=O)C2)c(Cl)c1/C=C/C(=O)OCC(=O)Nc1ccccc1OC(F)F` (stereo not given) was tested, and the z-score was 0.0178. For `CN(C)c1ccc(N=Cc2nc(-c3ccccc3)oc2OC(=O)c2cccc(Br)c2)cc1`, the z-score was 0.824. For `O=C(O)CN=C(NS(=O)(=O)c1ccccc1)c1ccccc1`, the z-score was active: 4.61. In the case of `Cc1cccc2sc(N(CCCN(C)C)C(=O)c3sc4ccccc4c3Cl)nc12`, the z-score is reported as -0.202. `CC1(C)Cc2c(C#N)c(N3CCN(C(=O)c4ccco4)CC3)nc(Cc3ccccc3)c2CO1` showed a z-score of -0.0405. Molecule `CCOC(=O)C(C(C)=O)c1nc(C)nc2c1nnn2Cc1ccccc1Cl` (stereo not given) has a z-score of -0.462. Work on `CCOc1ccc(-c2nnc(-c3ccccc3)n2-c2ccccc2)cc1` yielded a z-score of -0.771. `CCn1c(SCC(=O)c2cc(OC)ccc2OC)nnc1C1CC1` was tested, and the z-score was -0.316. `Cc1c(Br)cc(C(=O)N2CCCC2)c(C)c1C` showed a z-score of 0.235. With `COCCN(C(=S)Nc1ccc(OC)cc1)C1CCN(C(C)C)CC1` the z-score was -0.00881. In the case of `Cc1ccc(NC(=O)COC(=O)CN2C(=O)C3CCCCC3C2=O)cc1S(=O)(=O)N1CCOCC1` (stereo not given), the z-score is reported as -0.265. `COc1cc(NC2c3ccccc3C(=O)N2Cc2ccc3c(c2)OCO3)cc(OC)c1OC` (stereo not given) showed a z-score of -0.133. `Cc1ccc(-c2csc(NC(=O)Cc3cccs3)n2)cc1C` showed a z-score of -0.106. Molecule `COc1ccc(-c2c(C(F)(F)F)oc3c(CN4CCN(C)CC4)c(O)ccc3c2=O)cc1` has a z-score of -0.592. `C=CCn1c(-c2ccc(OC)cc2)csc1=Nc1c(C)n(C)n(-c2ccccc2)c1=O` was tested, and the z-score was -0.422. In the case of `Cc1ccc(Nc2cc(=O)[nH]c(=O)[nH]2)c(C)c1`, the z-score is reported as -0.115. `CCCCc1ccc(NC(=O)CN2NS(=O)(=O)c3ccccc3C2=O)cc1` was tested, and the z-score was -0.197. `CCCn1c(CNc2ccccc2O)nc2ccccc21` showed a z-score of -0.473. Molecule `O=C(O)/C=C/c1coc2ccccc2c1=O` has a z-score of -0.0918. In the case of `CCCOc1ccc(N2C(=O)CC(NNC(=O)c3ccc(COc4ccccc4)o3)C2=O)cc1` (stereo not given), the z-score is reported as -0.011. `CCOc1ccc(NC(=O)Nc2ccc3c(c2)nnn3C)cc1` showed a z-score of -0.355. In the case of `O=C1NC(=Nc2ccccc2)/C(=C/c2ccco2)S1`, the z-score is reported as -0.215. `Cc1ccc(Cl)c(OC(=O)c2ccc(N3CCOCC3)c([N+](=O)[O-])c2)c1` showed a z-score of -0.352. Work on `Cc1cccc2cc(CN(Cc3ccc(F)cc3)C(=O)N3CCOCC3)c3nnnn3c12` yielded a z-score of -0.294. `O=C(NCc1cccs1)c1nn2cccnc2c1Cl` was tested, and the z-score was 0.0467. In the case of `O=C(c1ccc(Cl)cc1)N1CCN=C1c1ccccc1`, the z-score is reported as -0.183. With `COc1ccc(CCNCc2ccc(OCc3ccc(Cl)nc3)c(OC)c2)cc1OC` the z-score was 0.013. `Cc1ccc(C(C#N)c2ccc3c(C(F)(F)F)cc(C(F)(F)F)nc3n2)cc1` (stereo not given) gave a z-score of 1.26.
